In all, about 110,000 compounds were measured (“z-score”: median about -0.1, highest 2% from about 2 on). The list shows a part of the results. The source made the active and inactive calls.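 Rule for the calls: active = z-score in the third read window above 3 or below -3; inactive = the rest.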
biological target: Metabotropic glutamate receptor 8 (Rattus norvegicus) (UniProt P70579); test: mGluR8 Gi/Go-coupled signaling modulation – cell-based, rat, thallium flux, HTS, primary screen (AID 488969); conditions: HEK293 rat mGluR8, GIRK (G protein-gated inwardly rectifying potassium channel) thallium flux, FluoZin2; at 10 µM; stronger effect = higher value; submaximal glutamate (EC20) added with thallium
Sequence of UniProt P70579 (P70579 whole entry, looked up): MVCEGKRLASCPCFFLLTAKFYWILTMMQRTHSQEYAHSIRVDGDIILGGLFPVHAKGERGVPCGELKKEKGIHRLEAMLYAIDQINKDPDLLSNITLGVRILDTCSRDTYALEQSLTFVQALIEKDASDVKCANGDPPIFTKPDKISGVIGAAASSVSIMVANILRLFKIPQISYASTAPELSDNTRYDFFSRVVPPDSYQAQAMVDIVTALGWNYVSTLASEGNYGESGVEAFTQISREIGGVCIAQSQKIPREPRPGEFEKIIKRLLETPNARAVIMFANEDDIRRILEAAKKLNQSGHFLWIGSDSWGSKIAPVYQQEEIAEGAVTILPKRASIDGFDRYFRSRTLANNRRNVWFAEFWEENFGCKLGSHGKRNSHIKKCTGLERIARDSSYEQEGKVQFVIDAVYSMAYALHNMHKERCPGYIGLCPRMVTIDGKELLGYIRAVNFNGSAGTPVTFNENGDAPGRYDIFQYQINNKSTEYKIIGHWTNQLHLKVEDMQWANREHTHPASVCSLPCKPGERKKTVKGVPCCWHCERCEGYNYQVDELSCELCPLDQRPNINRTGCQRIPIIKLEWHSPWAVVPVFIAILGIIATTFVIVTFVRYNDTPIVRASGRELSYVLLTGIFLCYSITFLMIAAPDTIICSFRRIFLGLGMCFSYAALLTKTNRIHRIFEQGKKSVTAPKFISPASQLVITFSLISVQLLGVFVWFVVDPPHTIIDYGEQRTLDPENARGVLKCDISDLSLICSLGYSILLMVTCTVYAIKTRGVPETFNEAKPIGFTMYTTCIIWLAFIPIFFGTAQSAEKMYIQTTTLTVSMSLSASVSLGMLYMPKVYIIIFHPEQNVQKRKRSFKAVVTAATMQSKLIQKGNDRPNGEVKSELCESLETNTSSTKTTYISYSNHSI

| Structure (SMILES) | z-score |
| --- | --- |
| CCCCC1(C)Cc2ccccc2C(=S)N1 (configuration not stated) | -0.236 |
| CC1CCN(C(=S)c2cn(Cc3ccc(F)cc3)c3ccccc23)CC1 | 0.0562 |
| NS(=O)(=O)c1ccc(CCNC(=O)CN2CCN(c3cccc(Cl)c3)CC2)cc1 | 0.138 |
| CC(=O)Nc1ccc(S(=O)(=O)N2CCN(c3cc4c(cc3[N+](=O)[O-])n(C)c(=O)n4C)CC2)cc1 | -0.0655 |
| COC(=O)C1CCN(C(=O)Nc2ccc(OC)cc2)CC1 | -0.116 |
| COc1cc(S(=O)(=O)N2CCN(C(=O)c3ccccc3F)CC2)c(OC)cc1NC(C)=O | 0.0904 |
| COc1cc(CNC2CCCC2)cc(Cl)c1OCc1ccc(F)cc1 | -0.271 |
| CCn1c(/C=C/c2ccc([N+](=O)[O-])o2)nc2ccccc2c1=O | -0.689 |
| Cc1c(NC(=S)NC(NC(=O)C(C)C)C(Cl)(Cl)Cl)c(=O)n(-c2ccccc2)n1C (configuration not stated) | -0.0993 |
| CN(CCO)c1cc(N2CCC3(CC2)OCCO3)c2nonc2c1[N+](=O)[O-] | 0.787 |
| O=C(COC(=O)CNC(=O)c1ccccc1)Nc1cccc(Br)c1 | -0.0953 |
| COc1ccccc1S(=O)(=O)n1cc(Cc2ccccc2)c(N)n1 | -0.756 |
| CC(C)NC(=S)N/N=C/C1=CCC2CC1C2(C)C (configuration not stated) | -0.69 |
| O=[n+]1c2c(n([O-])c3cc(F)c(N4CCCC4)cc31)CCC2 | active: -3.94 |
| O=C(CSc1oc(-c2ccco2)nc1S(=O)(=O)c1ccc(Cl)cc1)NCC1CCCO1 (configuration not stated) | -0.482 |
| CCCC1=C(C(=O)OCC)C(c2cc(Cl)cc(OC)c2OCC(=O)OCC)NC(=O)N1 (configuration not stated) | -2.37 |
| O=C(CSc1nnc(SCc2cccc3ccccc23)s1)c1ccc2c(c1)OCO2 | 1.35 |
| NC(=S)N=Nc1c(O)n(C2OC(=O)c3ccccc32)c2ccccc12 (configuration not stated) | 1.12 |
| CCn1c(-c2ccco2)n[nH]c1=S | 7.63e-05 |
| Cc1onc(-c2ccccc2Cl)c1C(=O)NCCN1Cc2ccccc2C1=O | 0.636 |
| CCOC(=O)c1c(C=O)c(C)n(Cc2ccc(Cl)cc2)c1C | 0.0766 |
| CC1(C)C([N+](=O)[O-])C(c2ccc(Cl)cc2)NC(c2ccc(Cl)cc2)C1[N+](=O)[O-] (configuration not stated) | -0.14 |

| Structure (SMILES) | z-score |
| --- | --- |
| O=C(CN1CCCC1)NC12CC3CC(CC(C3)C1)C2 | -0.0651 |
| CC(=O)c1cc(OC(=O)c2ccncc2)ccc1OC(=O)c1ccncc1 | -0.347 |
| Cc1nc(SCC(N)=O)[nH]c(=O)c1CCC(C)C | -0.0972 |
| Cc1ccc(NCc2nnc(SCC(=O)N3CCc4ccccc43)n2C)cc1 | -0.0452 |
| CCOc1ccc(-c2nc(-c3ccccc3C)no2)cc1 | 0.583 |
| COc1ccc(/C=N/NC(=O)c2cc(C34CC5CC(CC(C5)C3)C4)[nH]n2)cc1O | -0.472 |
| N#C/C(=C\c1ccc(OCc2ccccc2)cc1)C(=O)Nc1nc2c(s1)CCN(Cc1ccccc1)C2 | -0.419 |
| O=C(Nc1ccccc1C(=O)O)c1ccc2ccccc2n1 | -0.622 |
| O=C(c1ccccc1)N(Cc1ccc(F)cc1)Cc1nc2ccccc2c(=O)[nH]1 | 0.0675 |
| CCOC(=O)N1CCN(CC(=O)c2ccc3c(c2)CCN3)CC1 | -0.375 |
| COC(=O)c1cc(C(=O)OC)cc(N2C(=O)CC(Sc3nc(C)cc(C)n3)C2=O)c1 (configuration not stated) | 0.178 |
| Cc1ccc(C(=O)NCCNS(=O)(=O)c2ccccc2)cc1 | -0.176 |
| CC1(C)CC(=O)c2cc(OCC(=O)N3CCOCC3)ccc2O1 | -0.0746 |
| Cc1cccc(N2CCN(C(=O)c3cccc(N4C(=O)C5CC=CC(C)C5C4=O)c3)CC2)c1C (configuration not stated) | -0.0691 |
| CC(C)Cc1nc(N2CCN(C(=O)C(C)C)CC2)c(C#N)c2c1CCC2 | -1.48 |
| Cc1cccc2nc(CSc3ccccc3C(=O)O)cn12 | 0.0313 |
| O=C1NCC(O)=C1C=NCCO | -0.483 |
| COc1ccc(-n2c(SCC#N)nc3ccccc3c2=O)cc1 | -0.0748 |
| O=C(CSCc1ccc(Cl)cc1)N/N=C/c1c(Cl)cccc1Cl | -0.11 |
| Cc1nnc2n1NC(c1ccc(Cl)cc1)C(C(=O)N(C)C1CCCCC1)S2 (configuration not stated) | -0.576 |
| CC(C)n1c(=S)[nH]c2ccccc2c1=O | active: 9.16 |
| Cc1[nH]n(-c2ccccc2)c(=O)c1CCOC(=O)c1cccc(C(F)(F)F)c1 | 1.21 |

| Structure (SMILES) | z-score |
| --- | --- |
| CCN1CCN(CC(=O)Nc2cccc(C)c2C)C(=O)C1=O | 0.232 |
| CCOc1cccc(N(C(=O)C2COc3ccccc3O2)C(C(=O)NC2CCCCC2)c2ccc(O)cc2)c1 (configuration not stated) | -0.0915 |
| CC(=O)Cn1cnc2sc(-c3ccccc3)cc2c1=O | -0.0877 |
| Cc1ccc(S(=O)(=O)NCC2CCC(C(=O)NCc3ccc4c(c3)OCO4)CC2)cc1 (configuration not stated) | -0.117 |
| CN1C2C=C3C(C#N)=C(N)C(C#N)(C#N)C(c4ccc(Br)cc4)C3C1CC2 (configuration not stated) | 0.361 |
| O=C(c1ccco1)N1CCN(S(=O)(=O)c2ccc(F)cc2)CC1 | 0.471 |
| O=C(Nc1ccc(F)cc1)C(Sc1nc2ccccc2[nH]1)c1ccccc1 (configuration not stated) | -0.0892 |
| CC(CCc1ccccc1)NC(=O)c1ccc(Br)o1 (configuration not stated) | -0.657 |
| Cc1ccnc(N2CCN(c3c4c(c(C#N)c5nc6ccccc6n35)CCC4)CC2)c1 | 0.395 |
| CCc1ccc(NC(=O)N(C2CCCCC2)C(C)c2cccnc2)cc1 (configuration not stated) | -0.49 |
| C=CCn1c(NC(=O)c2ccccc2Cl)c(C#N)c2nc3ccccc3nc21 | -0.248 |
| CCCCSCc1ccc(C(=O)O)o1 | -0.356 |
| C/C(=N\NC(=O)c1ccc(NS(=O)(=O)c2cccs2)cc1)c1ccccc1 | -0.109 |
| O=C(CCCN1C(=O)c2ccccc2C1=O)OC1CSCC1NC(=O)c1ccccc1 (configuration not stated) | -0.17 |
| Cc1ccc(-c2nc3ccccc3c(=O)n2NC(=O)c2cccs2)cc1 | -0.0147 |
| Cc1ccc(S(=O)(=O)NC(=O)NCc2ccccc2)cc1 | -0.287 |
| C=CCn1c(SCC(=O)N2CCc3ccccc3C2)nnc1-c1ccncc1 | -0.255 |
| O=C1C2C3C=CC(C3)C2C(=O)N1c1ccc(Cc2ccncc2)cc1 (configuration not stated) | -0.0666 |
| N/C(=N\OC(=O)Cc1ccc(-c2ccccc2)cc1)c1cccc([N+](=O)[O-])c1 | -0.141 |
| CC(C)CNC(=S)NNC(=O)c1nn(C)cc1Cl | -0.246 |
| Cc1cc(NC(=O)CSc2nc(-c3cccs3)cc(C(F)(F)F)n2)no1 | -0.125 |
| CCC(C)(C(=O)NC1CCCC1)N(Cc1ccco1)C(=O)c1ccccn1 (configuration not stated) | -0.181 |

| Structure (SMILES) | z-score |
| --- | --- |
| CC(NC(=O)c1ccc(Cl)cc1)C(=O)N1CCCCC1 (configuration not stated) | -0.106 |
| COc1ccc(N2C(=O)CC(c3ccc(OC(C)C)cc3)C2=O)cc1 (configuration not stated) | -0.209 |
| Cn1c(CNC(=O)c2ccccc2)nnc1SCC(=O)N1CCN(c2ccccc2)CC1 | -0.274 |
| CC(SCc1cn2cc(Cl)ccc2n1)C(=O)O (configuration not stated) | 0.409 |
| CCCn1c(N)c(C(=O)CSc2nnc(C)n2Cc2ccccc2)c(=O)n(C)c1=O | 0.481 |
| Cn1c(CN2CCCC2)nc2cc(NC(=O)Nc3ccccc3)ccc21 | 0.0925 |
| O=C(OCC(=O)N1CCN(C(=O)c2ccco2)CC1)c1ccccc1OCc1ccccc1 | -1.45 |
| Cc1cc(C2=CC(C)(c3cc(C)oc3C)Nc3nc(C(F)(F)F)nn32)c(C)o1 (configuration not stated) | 1.62 |
| CCS(=O)(=O)n1nc(-c2ccccc2)nc1SCc1ccccc1 | -0.149 |
| CCn1cc(C2=NC(C)CO2)c2ccccc21 (configuration not stated) | -0.418 |
| COc1ccc(C(C(=O)NCc2ccccc2)N(Cc2ccc3c(c2)OCO3)C(=O)c2cnccn2)cc1 (configuration not stated) | 0.124 |
| Cc1ccc(Cn2ccc(NC(=O)c3nn(C)cc3Cl)n2)cc1 | -0.33 |
| CCOC(=O)c1cc(NC(=O)N(C(C)C)C(C)C)c(C)nc1C | 0.0304 |
| Clc1ccc2nc(CSc3nc4ccccc4o3)cn2c1 | -0.47 |
| CCCC(=O)N(Cc1cc2ccccc2[nH]c1=O)c1ccccc1OC | -0.531 |
| Nc1nc(CSc2nnnn2-c2ccc(Cl)cc2)nc(N2CCOCC2)n1 | -0.179 |
| Cc1cccc(C(C)C)c1NC(=O)C1CN(S(=O)(=O)c2ccccc2)CCN1S(=O)(=O)c1ccccc1 (configuration not stated) | -0.617 |
| COC(=O)c1sc(-c2ccccc2)cc1NC(=O)c1ccc(F)cc1 | -0.194 |
| COc1ccc(CN(C(=O)c2nsc(Cl)c2Cl)C(C(=O)NC2CCCC2)c2ccc(C)cc2)cc1 (configuration not stated) | -0.151 |
| O=C(Cc1cccc2ccccc12)OCn1nnc2ccccc2c1=O | -0.291 |
| COc1ccc(-c2c(=O)n(OCc3ccccn3)c3ccccc3[n+]2[O-])cc1OC | -0.924 |
| CCOC(=O)Cn1c(=NC(=O)CSC(C)=O)sc2cc(OC)ccc21 | -0.254 |

| Structure (SMILES) | z-score |
| --- | --- |
| COc1cc(C(=O)O/N=C2\CCCc3c2ccc(OC)c3[N+](=O)[O-])cc(OC)c1OC | 0.405 |
| Cc1cc(C(F)F)nn1CC(=O)NCc1ccc(Cl)cc1Cl | -0.113 |
| Fc1ccc(N2N=C(c3cccs3)CC2c2ccco2)c(F)c1 (configuration not stated) | -0.0593 |
| O=C(CCCSc1nc2ccccc2[nH]1)NCc1ccccc1Cl | -0.16 |
| COc1ccccc1NC(=S)NCCSc1ccc(C)cc1 | 0.199 |
| CSCCC(Nc1ccc(S(=O)(=O)N2CCOCC2)cc1[N+](=O)[O-])C(=O)OCC(=O)NCC(C)C (configuration not stated) | -0.305 |
| CCOC(=O)c1c(C#N)cnn1-c1ccc(C)cc1 | -0.142 |
| O=C(CSc1nc2ccccc2c(=O)n1Cc1ccco1)NCc1ccco1 | -0.352 |
| O=C(Nc1cccc2ccccc12)c1ccc(Cn2cc(Cl)cn2)cc1 | -1.06 |
| COc1ccc(CCNC(=O)Cc2cc(OCc3ccccc3)c(OC)cc2[N+](=O)[O-])cc1OC | -0.569 |
| CC(C)CN(C(=O)COC(=O)c1cc2c(s1)CCC2)C1CCS(=O)(=O)C1 (configuration not stated) | -0.146 |
| COc1ccc(C2=CC(c3cc(OC)c(OC)c(OC)c3)NC(=S)N2)cc1 (configuration not stated) | -0.549 |
| CCOC(=O)Cn1nnc(-c2ccccc2)n1 | -0.0293 |
| CC(C)C(=O)NNC(=O)CSc1nc(C2CCCCC2)nc2ccccc12 | 0.405 |
| COc1ccccc1NC(=O)NC1(C(=O)N2CCCCCC2)CCCCC1 | 0.445 |
| CCCCCCCN(C(=O)CCl)c1ccccc1C | -0.153 |
| CC(C)CNC(=S)NNC(=O)c1csc2c1CCCC2 | -0.116 |
| O=C1CC(N2CCN(C(c3ccccc3)c3ccccc3)CC2)C(=O)N1Cc1ccc(N2CCCC2=O)cc1 (configuration not stated) | -0.195 |
| CCOC(=O)c1sc2ncn(C(C)C(=O)OC)c(=O)c2c1C (configuration not stated) | -0.879 |

Reference: PubChem BioAssay AID488969 (Vanderbilt High Throughput Screening Facility, 2010)
